About 16,000 (7.3%) of roughly 220,000 compounds were called active. This list was built around the results that the source calls inconclusive (neither active nor inactive); the mix of calls is not that of the screen. The call rests on the fitted dose curve; in most records, active means well fitted inhibition curve with a large enough effect (not every such curve was filed as active); inconclusive means small, poorly fitted or top-dose-only effect, or another doubt; inactive means no such curve, though single readings can be large or run the other way. Potencies beside an inconclusive call are fits to weak or partial responses and may not hold up.
Each molecule was assayed against Aldehyde dehydrogenase 1A1 (Homo sapiens) (UniProt P00352) (assay: qHTS Assay for Inhibitors of Aldehyde Dehydrogenase 1 (ALDH1A1)). Conditions: Purified ALDH1A1, NADH fluorescence, propionaldehyde substrate; series mostly up to 75.3 µM; activity, negative = inhibition: at the top concentration.
UniProt P00352, sequence (P00352 whole entry, looked up): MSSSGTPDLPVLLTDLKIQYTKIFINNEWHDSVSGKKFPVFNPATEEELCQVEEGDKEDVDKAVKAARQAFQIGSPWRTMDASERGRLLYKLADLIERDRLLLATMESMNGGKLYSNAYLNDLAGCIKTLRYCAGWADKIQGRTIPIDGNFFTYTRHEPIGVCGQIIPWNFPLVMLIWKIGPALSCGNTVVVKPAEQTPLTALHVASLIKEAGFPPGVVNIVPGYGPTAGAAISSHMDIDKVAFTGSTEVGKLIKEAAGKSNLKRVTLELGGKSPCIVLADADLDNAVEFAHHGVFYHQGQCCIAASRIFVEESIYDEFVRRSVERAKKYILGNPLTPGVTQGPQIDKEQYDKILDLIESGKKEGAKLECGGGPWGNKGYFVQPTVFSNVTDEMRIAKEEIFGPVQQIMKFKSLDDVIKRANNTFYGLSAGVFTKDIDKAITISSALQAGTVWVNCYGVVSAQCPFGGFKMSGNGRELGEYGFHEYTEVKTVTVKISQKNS
Potency means the concentration at half of the fitted maximal effect; tags describe the fitted curve by direction and shape.
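Wherever activity, negative = inhibition is given: plate controls were no enzyme wells and a reference inhibitor.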

Potency, inconclusive:
Cc1nn(-c2ccccc2)c(N2CCCC2)c1/C=N/NC(=S)Nc1ccccc1F 39.8 µM [inhibitor, single point]
O=C(Nc1cccs1)Nc1ccccc1Cl 39.8 µM [inhibitor, single point]
O=C(CSc1nc(O)cc(=O)n1-c1ccccc1)Nc1ccc2c3c(cccc13)CC2 39.8 µM [inhibitor, single point]
Cc1cc(C(=O)OCC(=O)N2CCN(C(=O)c3ccco3)CC2)c(C)n1-c1ccc(F)cc1 39.8 µM [inhibitor, partial curve, poor fit]
O=S(=O)(NCCSc1nc2ccccc2o1)c1ccccc1 39.8 µM [inhibitor, partial curve]
Cc1ccc(C)c(-c2nc3cc(N)ccc3o2)c1 35.5 µM [inhibitor, single point]
NC(=O)c1c(NC(=O)CSc2nnc(Cc3ccccc3)n2Cc2ccco2)sc2c1CCC2 39.8 µM [inhibitor, single point]
O=C(N/N=C/c1c(Cl)[nH]c2ccccc12)c1ccc2c(c1)OCCO2 39.8 µM [inhibitor, single point]
O=c1nc(N/N=C/c2ccco2)cn[nH]1 39.8 µM [inhibitor, single point]
COCc1nnc(NS(=O)(=O)c2ccc([N+](=O)[O-])cc2)s1 29.9 µM [inhibitor, single point]
Cc1cc(C(=O)NNC(=S)NC(=O)/C=C/c2ccccc2Cl)n[nH]1 28.2 µM [inhibitor, single point]
N#C/C(=C/c1cn(-c2ccccc2)nc1-c1cccc(S(=O)(=O)N2CCOCC2)c1)C(=O)NCc1ccco1 28.2 µM [inhibitor, single point]
Cc1ccccc1NC(=O)CN1C(=S)NC(C)(C)CC1C (stereo not given) 39.8 µM [inhibitor, single point]
CCN1C(=O)C(CC(=O)Nc2c(C)cccc2C)Nc2cc(S(=O)(=O)N(C)C)ccc21 (stereo not given) 22.4 µM [inhibitor, single point]
N#Cc1ncc(Cl)c2ccccc12 31.6 µM [inhibitor, partial curve]
CCOC(=O)c1cc(NC(=O)c2cccnc2)cc(C(=O)OCC)c1 25.1 µM [inhibitor, partial curve]
CS(=O)(=O)c1nc(-c2cccs2)cc(C(F)(F)F)n1 28.2 µM [inhibitor, partial curve]
CNCc1ccccc1OCc1ccc(F)cc1 39.8 µM [inhibitor, single point]
CCOC(=O)C(C(=O)OCC)N(C#N)c1nc(OC)nc(N(C)C)n1 22.4 µM [inhibitor, single point]
O=C(CSc1nc(-c2ccccc2)c(-c2ccccc2)[nH]1)NCC1CCCO1 (stereo not given) 35.5 µM [inhibitor, single point]
CCOC(=O)CNC(=O)CSc1nc2cccnc2n1Cc1ccccc1 22.4 µM [inhibitor, single point]
CCSc1nnc(NC(=O)C2CCN(S(=O)(=O)c3ccccc3C(F)(F)F)CC2)s1 15.8 µM [inhibitor, partial curve]
COc1ccc(/C=C/C(=O)OCc2csc(-c3ccccc3)n2)cc1OC 39.8 µM [inhibitor, single point]
Cc1cc(/C=C(\C#N)c2nnc(N3CCOCC3)n2-c2ccccc2)c(C)n1-c1ccccc1 44.7 µM [inhibitor, single point]
O=C(NCC1CCCO1)C(=O)NCC(c1ccco1)N1CCN(c2ccccc2)CC1 (stereo not given) 31.6 µM [inhibitor, single point]
O=C(CCn1nnc2ccccc2c1=O)NCC1CCC(C(=O)O)CC1 (stereo not given) 15.8 µM [inhibitor, single point]
Cc1ccc(S(=O)(=O)N(C)C)cc1NC(=S)Nc1ccc2[nH]c(=O)[nH]c2c1 37.7 µM [inhibitor, single point]
O=C(CSc1nnc(CNc2cccc(Cl)c2)o1)OC1CCCCC1 25.1 µM [inhibitor, single point]
CCCCn1c(=NC(C)=O)c(C#N)cc2c(=O)n3cccc(C)c3nc21 25.1 µM [inhibitor, partial curve]

Potency, active:
O=C(/C=C/c1ccc(N2CCOCC2)cc1)c1ccccc1 31.6 µM
Cc1onc(-c2ccccc2)c1C(=O)NC(=S)NNC(=O)c1ccncc1 17.8 µM
COc1cc2[nH]c(=S)n(C3CC3)c(=O)c2cc1OC 28.2 µM
NC(=S)NCCCC(N)C(=O)O (stereo not given) 2.51 µM
O=C1NC(=O)/C(=C\c2cn(Cc3ccccc3F)c3ccccc23)N1 14.1 µM
CCCCC1(C)OC(=O)C(=Cc2ccc(N(CC)CC)cc2)C(=O)O1 (stereo not given) 0.398 µM
Cc1ccc2[nH]c(=O)c(CN(Cc3nnnn3C3CCCC3)C3CCCCC3)cc2c1 25.1 µM
CC(=O)C1C(c2cn(-c3ccccc3)nc2-c2cccs2)NC(=O)NC1(O)C(F)(F)F (stereo not given) 22.4 µM

activity, negative = inhibition, inactive:
NC(=O)Cn1c(=O)n(CCC(=O)NCCSCc2ccccc2)c(=O)c2ccccc21 0.48%
O=c1c2ccccc2ncn1Cc1cccc2ccccc12 -8.51%
O=C(CCC(=O)Nc1ccc(F)cc1)N/N=C/c1ccc(O)cc1O -3.21%
Cc1cc(NCc2ccco2)n2ncnc2n1 3.54%
COC(=O)c1ccc(NC(=O)CN2CCC(NC(=O)c3ccco3)CC2)cc1 8.38%
CO/N=C(\C)CCN1CCc2nc(-c3ccccc3)c(-c3ccccc3)cc2C1 12.9% [at 13.5 µM]
Cc1cc(C)c(C)c(S(=O)(=O)N[C@@H](C)C(=O)OCC(N)=O)c1C 2.1%
CSC1=C(C#N)C(c2ccccc2)C(C(C)=O)=C(C)N1 (stereo not given) -2.22%

— PubChem BioAssay AID1030 (National Center for Advancing Translational Sciences (NCATS), 2008)
